# Test results as given in PubChem BioAssay AID1347073 (National Center for Advancing Translational Sciences (NCATS), 2019).
# About 200 (0.44%) of roughly 45,000 compounds were called active. Another 7% or so got no clear call; they are omitted. Calls come from the whole dose curve; as a rule, active = well fitted activation curve with a large enough effect; inconclusive = small, poorly fitted or top-dose-only effect; inactive = no such curve, though single readings can be large or run the other way. Some of the results follow.
# Assay: qHTS of TDP-43 Inhibitors: NCGC Sytravon Library Screen; note: 0% is about no effect; nearly all actives have a fitted effect of over 55% in size
# Conditions: yeast TDP-43 toxicity rescue, BacTiter-Glo growth, 24 h; series mostly up to 46.1 µM; growth rescue (activation): at the top concentration
# How it was run: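 TDP-43-expressing yeast, pregrown in raffinose, seeded at OD600 0.02 in galactose medium with compound for 24 hr at 30 deg C. Growth read by BacTiter-Glo luminescence, so rescue of toxicity appears as activation.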
row,SMILES,growth rescue (activation)
1,O=C(O)c1ccc(N/N=C/c2ccc(F)c(F)c2)cc1,inactive: -84.9%
2,COc1ccc(NC(=O)N2CCN(c3nc4ccccc4n3C(C)C)CC2)cc1,inactive: -1.45%
3,CN(C)c1ccc(C(O)P(=O)(OC2CCCCC2)OC2CCCCC2)cc1 (centres undefined),inactive: -7.15%
4,Cc1ccc(C(=O)NCCNC(=O)c2cccnc2)cc1,inactive: -11.8%
5,Cc1ccc2cc3c(nc2c1)OCC3,inactive: 17.5%
6,CNc1nc(-c2c(C)[nH]c3ccc(OC)cc23)cs1,inactive: -18.7%
7,COc1ccc(NC(=O)N/C=C/c2ccccc2)cc1,inactive: -8.37%
8,O=C(O)C1C2C=CC(O2)C1C(=O)NCCc1cccc(Cl)c1 (centres undefined),inactive: -4.02%
9,Cc1ccccc1C1NC(c2ccccc2C)C([N+](=O)[O-])C(C)(C)C1[N+](=O)[O-] (centres undefined),inactive: 0.172%
10,COc1cc([N+](=O)[O-])cc(/C=N/NC(=O)C(C)Nc2cccc(C)c2)c1O (centres undefined),inactive: 14.9%
11,COc1cc(C(=O)NCc2ccncc2)cc(OC)c1OC,inactive: 6.33%
12,O=C(c1ccc(CN2CCc3ccccc3C2)cc1)N1CCN(c2ccccc2)CC1,inactive: 13.8%
13,S=C(NCc1ccccc1)NCc1ccc(CNC(=S)NCc2ccccc2)cc1,inactive: 19%
14,CCS(=O)(=O)N1Cc2ccccc2CC1C(=O)Nc1cccc(OC)c1 (centres undefined),inactive: -1.32%
15,Cc1ccc(S(=O)(=O)N2CCCCC2C(=O)O)s1 (centres undefined),inactive: -28.3%
16,COC(=O)C(C(C)C)N1CCc2c(C)nc3c(C#N)cnn3c21 (centres undefined),inactive: 22.8%
17,CCOc1ccc(S(=O)(=O)N2CCN(C(=O)c3cccn3C)CC2)cc1,inactive: 32.3%
18,CCc1ccccc1NC(=O)c1ccc(OCc2c(C)noc2C)cc1,inactive: 14.6%
19,O=C(NCC1CCCO1)C1CCN(C2CCN(Cc3ccco3)CC2)CC1 (centres undefined),inactive: -17.8%
20,Cc1ccc(S(=O)(=O)N(C)CCCC(=O)NC(C)(C)CO)cc1,inactive: -23.2%
21,COc1ccc(C(C(=O)NC2CCCC2)N(Cc2cccnc2)C(=O)c2snc(C(N)=O)c2N)cc1 (centres undefined),inactive: -15.5%
22,CCCC(O)(c1ccc(Cl)cc1)C(CN1CCOCC1)c1ccc(Cl)cc1 (centres undefined),inactive: 2.4%
23,COc1cc(C=O)ccc1OCC(=O)NC(C)(C)C,inactive: -4.82%

row,SMILES,growth rescue (activation)
1,Cc1ccc(OCC(=O)NCCCNC(=O)c2ccco2)cc1,inactive: -5.27%
2,O=C1CN(CC(=O)NC(=O)NCc2ccccc2)CCN1,inactive: 2.88%
3,CN(C)CCNc1ccc(-c2n[nH]c(=O)c3ccccc23)cc1[N+](=O)[O-],inactive: -4.67%
4,CC(C)OP(=O)(OC(C)C)C(Nc1cccc(C(=O)O)c1)c1ccccc1 (centres undefined),inactive: -4.2%
5,Cc1ccc(S(=O)(=O)N(C)C)cc1NC(=O)C(C)OC(=O)c1ccc2c(c1)OCCO2 (centres undefined),inactive: 14.8%
6,O=C(N/N=C/c1c(O)ccc2ccccc12)c1ccc(CO)nc1,inactive: -15%
7,COC(=O)c1cc(Br)c(=O)n(Cc2ccco2)c1,inactive: 14.2%
8,CCNC(=O)C1(C)CCCN(Cc2ccc(-c3ccccn3)cc2)C1 (centres undefined),inactive: 2.34%
9,Cc1nc(C(F)(F)F)ccc1C(=O)N1CCCC(C)(C(=O)O)C1 (centres undefined),inactive: 6.69%
10,COc1ccc(NC(=O)C2(C)CCN2Cc2ccc(OC)c3ccccc23)cc1OC (centres undefined),inactive: 1.27%
11,CCC1CCCCN1C(=O)COC(=O)c1n[nH]c2ccccc12 (centres undefined),inactive: -0.372%
12,FC(F)(F)c1ccccc1N/N=C/c1cccnc1,inactive: -8.07%
13,O=C(NCC1CCCO1)c1cnc(Cl)c(Cl)c1 (centres undefined),inactive: 3.75%
14,CCOC(=O)c1c(C)[nH]c(C)c1C(=O)CSc1nc2ccccc2c(=O)n1-c1ccccc1C,inactive: -14.6%
15,CCc1cccc(NC(=O)CN(C)S(=O)(=O)c2cccs2)c1,inactive: 18.4%
16,O=C(c1cnn2c(C(F)F)cc(-c3ccccc3)nc12)N1CCCCC1c1cccnc1 (centres undefined),inactive: 29.1%
17,O=C(Nc1cccc(C(=O)O)c1)/C(=C\c1ccc2c(c1)OCO2)NC(=O)c1ccccc1,inactive: -4.95%
18,O=[N+]([O-])c1ccc(Nc2nc(NC3CCCCC3)nc(N3CCCC3)n2)cc1,inactive: 11.1%
19,Cc1cnc(NC(=O)c2cncc(Br)c2)s1,inactive: 1.25%
20,O=C(Nc1cccc(Cl)c1)c1cc(S(=O)(=O)NCCc2ccc(Cl)cc2)ccc1F,inactive: 18.8%
21,Cc1cc(C)c(NC(=O)COC(=O)Cn2nc(-c3ccccc3)oc2=O)c(C)c1,inactive: 12.8%
22,O=C1c2cccc3c([N+](=O)[O-])ccc(c23)C(=O)N1CC1CCCO1 (centres undefined),inactive: -16%
23,O=C(CN1CCC(NC(=O)C2CCCCC2)CC1)Nc1cccc(F)c1,inactive: -8.68%

row,SMILES,growth rescue (activation)
1,COc1ccc(N(CC(=O)Nc2ccc3c(c2)OCO3)S(=O)(=O)c2ccccc2)cc1,inactive: 2.84%
2,Cc1occc1C(=O)N/N=C/c1ccc2c(c1)OCO2,inactive: 6.94%
3,CCN(CC)CCN(C(=O)c1ccc(CN2CCCCC2)o1)C(C(=O)NC1CCCCC1)c1ccc(F)cc1 (centres undefined),inactive: -2.82%
4,NC(=S)NNC(=O)Nc1cccc(Cl)c1,inactive: -10.5%
5,O=C(O)C1C(=O)NCC1c1ccccc1 (centres undefined),inactive: 5.38%
6,CC1=NN(c2ccccc2)C(=O)/C1=C\c1cn(-c2ccccc2)nc1C,inactive: -5.92%
7,COc1ccc(C(C(=O)NCC2CCCO2)N(C(=O)CNC(=O)c2ccco2)c2cc(C)cc(C)c2)cc1OC (centres undefined),inactive: 6.85%
8,COc1cccc(CNC(=O)COC(=O)c2cccc(S(=O)(=O)N3CCCC3)c2)c1,inactive: 5.24%
9,COc1ccc(CNc2cccc3[nH]c(C(F)(F)F)nc23)cc1,inactive: -14.8%
10,COC(=O)c1cc(Br)c(=O)n(CCN(C(C)C)C(C)C)c1,inactive: 0.55%
11,O=C(CCOc1cccc(Br)c1)Nc1ccc(F)c(S(=O)(=O)N2CCOCC2)c1,inactive: -1.25%
12,O=C(c1ccc(NS(=O)(=O)c2ccc(Cl)cc2)cc1)N1CCOCC1,inactive: -0.149%
13,COCC1CCN(C(=O)c2ccc3oc(Cc4ccccc4)nc3c2)C1 (centres undefined),inactive: 2.45%
14,Cc1cc([N+](=O)[O-])cc(/C=N/n2c(C)nc3ccccc3c2=O)c1O,inactive: -37.9%
15,CCc1ccc(NC(=O)C(C)OC(=O)Cc2cc(OC)c(OC)c(OC)c2)cc1 (centres undefined),inactive: 2.7%
16,CN(C(=O)COC(=O)c1cccnc1Cl)C1CCCCC1,inactive: 23%
17,CCOc1ccccc1Nc1nnc(SCC(=O)Nc2ccc3[nH]c(=O)[nH]c3c2)s1,inactive: 16.2%
18,O=C(COC(=O)c1cnccn1)c1ccc([N+](=O)[O-])cc1,inactive: -6.66%
19,CCC(C)NCCCCOc1ccc(Br)cc1 (centres undefined),inactive: -1.6%
20,CC(=O)NC(c1ccccc1)c1nc(-c2cc3ccccc3o2)cs1 (centres undefined),inactive: 14.9%
21,CCN1CCN(c2cc3nc(C)n(Cc4ccccc4)c(=O)c3cc2NC(=O)c2ccccc2F)CC1,inactive: -0.277%
22,Cc1ccc(-c2cc3nc(C)cc(C)n3n2)cc1,inactive: 9.86%
23,O=C(Nc1sc2c(c1C(=O)O)CCCCC2)c1ccccc1F,inactive: 8.13%
